cAMP reporter score and surface expression score data for 63 variants are collected here from the GPR68 mutational scans of Howard et al. (2025).

Scores with a large standard error are left out. Two further conditions of the source, in which the scores hardly spread, are not listed. In variant names, del marks residues removed and ins residues inserted between the two positions. For some of these results: The data file names ogerin without a concentration.

The labels stand for the following.
B1: GPR68, Q15743 (parent)
chain: MGNITADNSSMSCTIDHTIHQTLAPVVYVTVLVVGFPANCLSLYFGYLQIKARNELGVYLCNLTVADLFYICSLPFWLQYVLQHDNWSHGDLSCQVCGILLYENIYISVGFLCCISVDRYLAVAHPFRFHQFRTLKAAVGVSVVIWAKELLTSIYFLMHEEVIEDENQHRVCFEHYPIQAWQRAINYYRFLVGFLFPICLLLASYQGILRAVRRSHGTQKSRKDQIQRLVLSTVVIFLACFLPYHVLLLVRSVWEASCDFAKGVFNAYHFSLLLTSFNCVADPVLYCFVSETTHRDLARLRGACLAFLTCSRTGRAREAYPLGAPEASGKSGAQGEEPELLTKLHPAFQTPNSPGSGGFPTGRLA

In data set [1] the parent is B1. Description: cAMP reporter score (Enrich2 score, wild type = 0); higher = more signal; HEK293T, FACS bins.
The variants in data set [2] derive from B1. Description: surface expression score (Enrich2 score, wild type = 0); higher = more signal; HEK293T, FACS bins.

As to C94V, the cAMP reporter score in data set [1] (pH 6, modulator: ogerin) was -1.5; in data set [1] (pH 6.5, modulator: ogerin), -0.117. For the same variant, in data set [2], the surface expression score is -0.782.
For C304R, the cAMP reporter score in data set [1] (pH 6.5, modulator: ogerin) was -1.22.
Consider S276L, for which the cAMP reporter score was -0.258 in data set [1] (pH 6); -0.464 in data set [1] (pH 6, modulator: ogerin); -1.06 in data set [1] (pH 6.5, modulator: ogerin). The surface expression score in data set [2] was -0.744.
On to R128N, for which the surface expression score in data set [2] is -0.281.
Turning to R128P, the cAMP reporter score in data set [1] (pH 6, modulator: ogerin) was -1.03.
On to V171T, for which the cAMP reporter score in data set [1] (pH 6, modulator: ogerin) was -0.595. Also, the surface expression score in data set [2] stood at 0.678.
As for V171D, in data set [2], the surface expression score was 0.764.
On to V123I, for which the cAMP reporter score in data set [1] (pH 6, modulator: ogerin) is -0.656; in data set [1] (pH 6.5, modulator: ogerin) it was 1.71. Also, the surface expression score in data set [2] was -1.13.
Regarding V230H, the cAMP reporter score was -0.233 in data set [1] (pH 6); -0.644 in data set [1] (pH 6, modulator: ogerin); -0.426 in data set [1] (pH 6.5, modulator: ogerin).
Consider V230Y, for which the cAMP reporter score was -1.38 in data set [1] (pH 6) and -1.68 in data set [1] (pH 6.5, modulator: ogerin). The surface expression score in data set [2] was -1.8.
For V230I, the cAMP reporter score in data set [1] (pH 6) is 2.77; in data set [1] (pH 6, modulator: ogerin) it was -0.076; in data set [1] (pH 6.5, modulator: ogerin) it was 2.4. For the same variant, in data set [2], the surface expression score is -1.27.
In the case of V230D, in data set [2], the surface expression score is -2.26.
V230Q: in data set [1] (pH 6.5, modulator: ogerin), the cAMP reporter score is -1.46. For the same variant, the surface expression score in data set [2] was -1.47.
On to V230R, for which the cAMP reporter score in data set [1] (pH 6, modulator: ogerin) is -2.72.
V230C: the cAMP reporter score in data set [1] (pH 6) is -0.593; in data set [1] (pH 6, modulator: ogerin), -0.056; in data set [1] (pH 6.5, modulator: ogerin), 0.961. For the same variant, in data set [2], the surface expression score is -1.31.
Regarding P197_I198insG, the cAMP reporter score in data set [1] (pH 6.5, modulator: ogerin) was -1.52. The surface expression score in data set [2] is -1.98.
The matching figures for F132E: -1.74 and -3.21.
For the variant F132Y, the cAMP reporter score in data set [1] (pH 6, modulator: ogerin) is -0.401; in data set [1] (pH 6.5, modulator: ogerin) it was -2.46.
Take S88W: the cAMP reporter score in data set [1] (pH 6, modulator: ogerin) came out at 0.761. Also, the surface expression score in data set [2] is 0.535.
Regarding A319G, the cAMP reporter score in data set [1] (pH 6) was 2.69; in data set [1] (pH 6, modulator: ogerin) it was -0.638; in data set [1] (pH 6.5, modulator: ogerin), -0.741. Besides, the surface expression score in data set [2] amounted to 0.386.
Regarding A319S, the cAMP reporter score in data set [1] (pH 6, modulator: ogerin) is 1.15. For the same variant, in data set [2], the surface expression score was found to be 0.107.
On to A124_H125del, for which, in data set [1] (pH 6.5, modulator: ogerin), the cAMP reporter score was -1.29. The surface expression score in data set [2] was -1.12.
On to D118G, for which the cAMP reporter score turned out to be 0.232 in data set [1] (pH 6, modulator: ogerin) and 0.646 in data set [1] (pH 6.5, modulator: ogerin). The surface expression score in data set [2] was -1.4.
For D118Q the same measures were -0.304, 0.972 and -1.77.
For the variant D118C, the cAMP reporter score in data set [1] (pH 6.5, modulator: ogerin) worked out at 6.74. Further, the surface expression score in data set [2] was -1.
Turning to D118T, the cAMP reporter score in data set [1] (pH 6, modulator: ogerin) was -0.906; in data set [1] (pH 6.5, modulator: ogerin), 2.72. Besides, the surface expression score in data set [2] is -1.36.
Regarding E336_E337insG, the cAMP reporter score worked out at 0.897 in data set [1] (pH 6); 0.696 in data set [1] (pH 6, modulator: ogerin); 0.044 in data set [1] (pH 6.5, modulator: ogerin). For the same variant, the surface expression score in data set [2] came out at 0.449.
A180F: the cAMP reporter score in data set [1] (pH 6.5, modulator: ogerin) is -1.43. In addition, the surface expression score in data set [2] is -0.375.
A180D: the cAMP reporter score in data set [1] (pH 6, modulator: ogerin) turned out to be 0.371; in data set [1] (pH 6.5, modulator: ogerin) it was 3.62. In addition, in data set [2], the surface expression score is -0.24.
For Q334Y, the cAMP reporter score in data set [1] (pH 6) was -0.561; in data set [1] (pH 6, modulator: ogerin) it was 0.677; in data set [1] (pH 6.5, modulator: ogerin), -0.429.
Take L92_S93insG: in data set [1] (pH 6, modulator: ogerin), the cAMP reporter score is -0.669. For the same variant, the surface expression score in data set [2] is -0.317.
On to G358del, for which the cAMP reporter score in data set [1] (pH 6) was -0.034; in data set [1] (pH 6, modulator: ogerin) it was -1.49.
For E339N, the cAMP reporter score is 0.054 in data set [1] (pH 6) and -0.653 in data set [1] (pH 6, modulator: ogerin). The surface expression score in data set [2] amounted to 0.27.
Consider E103A, for which the cAMP reporter score in data set [1] (pH 6, modulator: ogerin) is -0.929; in data set [1] (pH 6.5, modulator: ogerin) it was -3.13. In data set [2], the surface expression score is 0.197.
For L150R the same measures were -1.48, -0.963 and -2.27.
With L150M, the cAMP reporter score in data set [1] (pH 6.5, modulator: ogerin) was -0.426.
For S232_V234del, the cAMP reporter score is -1.8 in data set [1] (pH 6, modulator: ogerin) and -0.732 in data set [1] (pH 6.5, modulator: ogerin). Besides, the surface expression score in data set [2] was -1.52.
For T14Y the same measures were 1.02, -0.833 and 1.63.
As to V34R, the cAMP reporter score is -1.3 in data set [1] (pH 6, modulator: ogerin) and -0.765 in data set [1] (pH 6.5, modulator: ogerin).
Take E337T: the cAMP reporter score in data set [1] (pH 6) turned out to be 2.21; in data set [1] (pH 6, modulator: ogerin), 0.448; in data set [1] (pH 6.5, modulator: ogerin) it was 0.714.
Regarding E337V, the cAMP reporter score in data set [1] (pH 6) came to 1.99; in data set [1] (pH 6.5, modulator: ogerin) it was 1.1. Besides, in data set [2], the surface expression score is -0.414.
For V230_S232del, the cAMP reporter score was -0.584 in data set [1] (pH 6); -0.665 in data set [1] (pH 6, modulator: ogerin); -0.947 in data set [1] (pH 6.5, modulator: ogerin). Further, the surface expression score in data set [2] was -0.394.
For H130_Q131insGS, the cAMP reporter score in data set [1] (pH 6, modulator: ogerin) is -1.9; in data set [1] (pH 6.5, modulator: ogerin), 0.02.
For Y120I, in data set [1] (pH 6.5, modulator: ogerin), the cAMP reporter score is -0.333. Further, the surface expression score in data set [2] is -3.32.
K51Y: the cAMP reporter score in data set [1] (pH 6, modulator: ogerin) was -1.05. Moreover, the surface expression score in data set [2] was -0.408.
For K51D, the cAMP reporter score in data set [1] (pH 6.5, modulator: ogerin) amounted to 0.335. For the same variant, in data set [2], the surface expression score is -1.25.
For V58F the same measures were -1.42 and -0.931.
Consider L74N, for which the cAMP reporter score in data set [1] (pH 6, modulator: ogerin) was -0.647; in data set [1] (pH 6.5, modulator: ogerin), -0.432.
As for G355N, the cAMP reporter score in data set [1] (pH 6) came to 2.15; in data set [1] (pH 6, modulator: ogerin), 3.71; in data set [1] (pH 6.5, modulator: ogerin), 2.12. Further, the surface expression score in data set [2] amounted to 2.08.
F237H: the cAMP reporter score in data set [1] (pH 6) is 0.115; in data set [1] (pH 6, modulator: ogerin), -3.47.
For Q49V, in data set [1] (pH 6.5, modulator: ogerin), the cAMP reporter score is -0.834. Further, the surface expression score in data set [2] is -0.864.
As to R317_A319del, the cAMP reporter score in data set [1] (pH 6) was -0.421; in data set [1] (pH 6, modulator: ogerin) it was -0.58; in data set [1] (pH 6.5, modulator: ogerin) it was -0.431. Besides, the surface expression score in data set [2] is -0.416.
As to Y244P, in data set [1] (pH 6, modulator: ogerin), the cAMP reporter score was -3.6. Further, the surface expression score in data set [2] is -0.289.
For F36S, the cAMP reporter score is -0.647 in data set [1] (pH 6, modulator: ogerin) and -0.772 in data set [1] (pH 6.5, modulator: ogerin).
G329Q: the cAMP reporter score in data set [1] (pH 6) worked out at 1.22; in data set [1] (pH 6, modulator: ogerin) it was 1.04; in data set [1] (pH 6.5, modulator: ogerin), 0.68. In addition, the surface expression score in data set [2] is 0.855.
For G329K, in data set [1] (pH 6, modulator: ogerin), the cAMP reporter score is 1.22. Also, in data set [2], the surface expression score was found to be 0.613.
The matching figures for F111_L112insGSG: -1.71 and -2.64.
With Q182del, the cAMP reporter score in data set [1] (pH 6, modulator: ogerin) is -0.9; in data set [1] (pH 6.5, modulator: ogerin) it was 0.124. Moreover, in data set [2], the surface expression score worked out at 0.492.
Consider A239D, for which the cAMP reporter score was -0.71 in data set [1] (pH 6, modulator: ogerin) and -0.437 in data set [1] (pH 6.5, modulator: ogerin).
Consider A239K, for which the cAMP reporter score is -0.089 in data set [1] (pH 6); -0.628 in data set [1] (pH 6, modulator: ogerin); -1.64 in data set [1] (pH 6.5, modulator: ogerin).
Consider A239F, for which the cAMP reporter score stood at 0.811 in data set [1] (pH 6) and 1.67 in data set [1] (pH 6.5, modulator: ogerin).
T309R: the cAMP reporter score in data set [1] (pH 6) stood at 2.48; in data set [1] (pH 6, modulator: ogerin), 0.521. For the same variant, in data set [2], the surface expression score was 1.33.
F194K: the cAMP reporter score in data set [1] (pH 6, modulator: ogerin) is -2.14; in data set [1] (pH 6.5, modulator: ogerin), -0.939. Further, the surface expression score in data set [2] was -3.25.
